Test results as given in PubChem BioAssay AID602393 (Broad Institute, 2012).
Out of some 350,000 compounds screened, about 7,000 (2%) were called active. The inconclusive results got no clear call from the source; some entries with a clear call stand among them for comparison. No stated cut-off is given here; in the data, active means activation above about 40%; inconclusive means no clear call, values can overlap the other calls; inactive means below that.

Assay: raisers of Bmi1 knock-in reporter signal – mouse ES cells, Bmi1 luciferase knock-in, single point, esBAF inhibitor project, primary screen (AID 602393);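 further: 0% = median of the plate's neutral control wells and 100% = double that signal; a rise in the Bmi1 reporter signal indicates esBAF inhibition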
Details: 24 h, at 12.5 µM, active compounds read high, 100% = twice the neutral-well signal
For `C=CCN(C(=O)COC(=O)c1cc[n+]([O-])cc1)c1nc(-c2ccccc2)cs1`, the reporter increase was inconclusive: 43.3%.
With `O=C(Oc1ccc(-c2ccccc2)cc1)N1CCCCC1` the reporter increase was inconclusive: 41.7%.
For `COc1cccc(/C=N/N2CCN(c3ccccc3OC)CC2)c1`, the reporter increase was inconclusive: 40.8%.
In the case of `CCCc1ccc2oc(C(=O)NCCc3cnn(C)c3)c(C)c2c1`, the reporter increase is reported as active: 47.4%.
In the case of `COc1ccc(NC(=O)Nc2ccc3c(c2)C(=O)N([C@H](C)CO)C[C@@H](C)[C@H](CN(C)C(=O)NC(C)C)O3)cc1`, the reporter increase is reported as inactive: 0.36%.
For `CC(=O)N1[C@@H]2c3ccc(-c4cccc(F)c4)c(=O)n3C[C@@H]2[C@@H](CO)[C@@H]1C(=O)NCC1CC1`, the reporter increase was inactive: 2.78%.
With `O=C(NN1C(=O)C2CC=C(Cl)CC2C1=O)c1ccncc1` (stereo not drawn) the reporter increase was inactive: -4.81%.
For `COc1ccc(-n2nc3cc(C)c(NC(=S)NC(=O)c4ccccc4C)cc3n2)cc1`, the reporter increase was inconclusive: 52.8%.
With `Cc1c(NC(=O)c2cc3ccccc3oc2=O)c(=O)n(-c2ccccc2)n1C` the reporter increase was inconclusive: 41.3%.
For `C[C@@H]1CN([C@@H](C)CO)C(=O)c2cccc(N(C)C)c2O[C@@H]1CN(C)Cc1ccc(Cl)c(Cl)c1`, the reporter increase was inactive: 7.8%.
With `COc1cc2ccccc2cc1C(=O)Nc1ccc(O)cc1` the reporter increase was inconclusive: 27.9%.
In the case of `CC/C(C)=N\Nc1nc(-c2cc3cc(OC)ccc3oc2=O)cs1`, the reporter increase is reported as inconclusive: 40.3%.
In the case of `COc1ccc(C2=NN(c3nc(-c4ccc(CNC(C)=O)cc4)cs3)C(c3ccco3)C2)cc1` (stereo not drawn), the reporter increase is reported as inconclusive: 43.3%.
For `CC(C)NC(=O)NCC[C@H]1CC[C@@H](NS(=O)(=O)c2ccc(-c3ccccc3)cc2)[C@@H](CO)O1`, the reporter increase was inactive: 0.177%.
With `O=C(Nc1cccc(Cl)c1)N[C@@H]1CC[C@@H](CCNC(=O)C2CC2)O[C@H]1CO` the reporter increase was inactive: -2.01%.
In the case of `CC1CCC(NC(=O)N(CCCl)N=O)CC1` (stereo not drawn), the reporter increase is reported as inconclusive: 43.4%.
In the case of `C=CCc1cccc2cc(C(=O)Nc3ccc(F)cc3)c(=O)oc12`, the reporter increase is reported as inconclusive: 43.4%.
With `COc1ccc(CCNC(=O)c2ccc3c(c2)OCO3)cc1` the reporter increase was inconclusive: 44.2%.
With `CN(C)CCNC(=O)c1[nH]nc2c1CCc1ccccc1-2` the reporter increase was inconclusive: 33.3%.
For `CCNC(=O)COc1ccc2ccccc2c1`, the reporter increase was inconclusive: 40.3%.
In the case of `Cc1ccc(NC(=O)CSc2nnc3ccccn23)c(Cl)c1`, the reporter increase is reported as active: 66.2%.
For `CN(C)c1ccc(CNc2ccccn2)cc1`, the reporter increase was inconclusive: 40.8%.
In the case of `C[C@H]1CN([C@@H](C)CO)C(=O)c2c(c3ccccc3n2C)-c2ccccc2CO[C@H]1CN(C)C(=O)CCC(F)(F)F`, the reporter increase is reported as inactive: -1.07%.
